# Reference: the supplement of paper PMC8728848
# Some of the results follow.
# B1: LKITALY (Gibberella zeae) (protein)
# chain: MGNFHESSNNIWLEDGHILHAECGNGEGDYVESTLDLDYYIGNDDGSFSWGGENFSGSASNITLDIEGDDNIPVLRAELNPMDGDPVEANVNLSERIGNDCGTLIFLA
# Experiments:
# Experiment in all cases: glycan array binding signal (z-score within array); higher = stronger binding
# Conditions in all cases: glycan notation: IUPAC condensed, linker removed
# [1] = target: GlcNAc(b1-3)Gal(b1-4)GlcNAc
# In short: (§1)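 Glycan array data came from 3228 arrays in the Consortium for Functional Glycomics database, and only arrays with an available protein sequence were kept. Glycan names were put into IUPAC-condensed notation, and columns mapping to the same glycan were averaged. The binding signal is a within-array Z-score, averaged across arrays of one protein sequence run at different concentrations or buffers and across linkers. A negative Z-score can be read as non-binding.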
# [2] = target: GlcNAc(b1-3)Gal(b1-4)GlcNAc(b1-3)Gal(b1-4)GlcNAc
# In short: as §1
# [3] = target: GlcNAc(b1-3)GalNAc
# In short: as §1
# [4] = target: GlcNAc(b1-3)[GlcNAc(b1-6)]Gal(b1-4)GlcNAc
# In short: as §1
# [5] = target: GlcNAc(b1-3)[GlcNAc(b1-6)]GalNAc
# In short: as §1
# [6] = target: GlcNAc(b1-3)[GlcNAc(b1-6)]GlcNAc(b1-4)GlcNAc
# In short: as §1
# [7] = target: GlcNAc(b1-4)Gal(b1-4)GlcNAc
# In short: as §1
# [8] = target: GlcNAc(b1-4)GlcNAc(b1-4)GlcNAc
# In short: as §1
# [9] = target: GlcNAc(b1-4)GlcNAc(b1-4)GlcNAc(b1-4)GlcNAc(b1-4)GlcNAc
# In short: as §1
# [10] = target: GlcNAc(b1-4)GlcNAc(b1-4)GlcNAc(b1-4)GlcNAc(b1-4)GlcNAc(b1-4)GlcNAc
# In short: as §1
# [11] = target: GlcNAc(b1-4)[GlcNAc(b1-6)]GalNAc
# In short: as §1
# [12] = target: GlcNAc(b1-6)Gal(b1-4)GlcNAc
# In short: as §1
# [13] = target: GlcNAc(b1-6)GalNAc
# In short: as §1
# [14] = target: Kdn(a2-3)Gal(b1-3)GlcNAc
# In short: as §1
# [15] = target: Kdn(a2-3)Gal(b1-4)GlcNAc
# In short: as §1
# [16] = target: Man(a1-2)Man(a1-2)Man(a1-3)Man
# In short: as §1
# [17] = target: Man(a1-2)Man(a1-2)Man(a1-6)[Man(a1-3)]Man
# In short: as §1
# [18] = target: Man(a1-2)Man(a1-3)Man
# In short: as §1
# [19] = target: Man(a1-2)Man(a1-3)[Man(a1-2)Man(a1-6)]Man
# In short: as §1
# [20] = target: Man(a1-2)Man(a1-3)[Man(a1-2)Man(a1-6)]Man(a1-6)[Man(a1-2)Man(a1-2)Man(a1-3)]Man(b1-4)GlcNAc(b1-4)GlcNAc
# In short: as §1
# [21] = target: Man(a1-2)Man(a1-3)[Man(a1-6)]Man(a1-6)[Man(a1-2)Man(a1-3)]Man(b1-4)GlcNAc(b1-4)GlcNAc
# In short: as §1
# [22] = target: Man(a1-2)Man(a1-6)[Man(a1-3)]Man(a1-6)[Man(a1-2)Man(a1-2)Man(a1-3)]Man(b1-4)GlcNAc(b1-4)GlcNAc
# In short: as §1
# [23] = target: Man(a1-3)[Man(a1-6)]Man
# In short: as §1
# [24] = target: Man(a1-3)[Man(a1-6)]Man(a1-6)[Man(a1-2)Man(a1-3)]Man(b1-4)GlcNAc(b1-4)GlcNAc
# In short: as §1
# [25] = target: Man(a1-3)[Man(a1-6)]Man(a1-6)[Man(a1-3)]Man(b1-4)GlcNAc(b1-4)GlcNAc
# In short: as §1
# [26] = target: Man(a1-3)[Man(a1-6)]Man(b1-4)GlcNAc(b1-4)GlcNAc
# In short: as §1
# [27] = target: Man(b1-4)GlcNAc
# In short: as §1
# [28] = target: Neu5Ac(a2-3)Gal
# In short: as §1
# [29] = target: Neu5Ac(a2-3)Gal(b1-3)GalNAc
# In short: as §1
# [30] = target: Neu5Ac(a2-3)Gal(b1-3)GalNAc(b1-3)Gal(a1-4)Gal(b1-4)Glc
# In short: as §1
# [31] = target: Neu5Ac(a2-3)Gal(b1-3)GalNAc(b1-3)Gal(b1-4)GlcNAc
# In short: as §1
# [32] = target: Neu5Ac(a2-3)Gal(b1-3)GalNAc(b1-4)[Neu5Ac(a2-3)]Gal(b1-4)Glc
# In short: as §1
# [33] = target: Neu5Ac(a2-3)Gal(b1-3)GalNAc6S
# In short: as §1
# [34] = target: Neu5Ac(a2-3)Gal(b1-3)GlcNAc
# In short: as §1
# [35] = target: Neu5Ac(a2-3)Gal(b1-3)GlcNAc6S
# In short: as §1
# [36] = target: Neu5Ac(a2-3)Gal(b1-3)[Fuc(a1-4)]GlcNAc
# In short: as §1
# [37] = target: Neu5Ac(a2-3)Gal(b1-3)[Fuc(a1-4)]GlcNAc(b1-3)Gal(b1-4)[Fuc(a1-3)]GlcNAc
# In short: as §1
# [38] = target: Neu5Ac(a2-3)Gal(b1-3)[Neu5Ac(a2-3)Gal(b1-4)]GlcNAc
# In short: as §1
binder,measurement,setting,value
B1,glycan array binding signal (z-score),[1],-0.351
same,glycan array binding signal (z-score),[2],-0.352
same,glycan array binding signal (z-score),[3],-0.355
same,glycan array binding signal (z-score),[4],-0.355
same,glycan array binding signal (z-score),[5],-0.348
same,glycan array binding signal (z-score),[6],-0.353
same,glycan array binding signal (z-score),[7],-0.359
same,glycan array binding signal (z-score),[8],-0.36
same,glycan array binding signal (z-score),[9],-0.354
same,glycan array binding signal (z-score),[10],-0.355
same,glycan array binding signal (z-score),[11],-0.356
same,glycan array binding signal (z-score),[12],-0.353
same,glycan array binding signal (z-score),[13],-0.355
same,glycan array binding signal (z-score),[14],-0.357
same,glycan array binding signal (z-score),[15],3.13
same,glycan array binding signal (z-score),[16],-0.345
same,glycan array binding signal (z-score),[17],-0.344
same,glycan array binding signal (z-score),[18],-0.355
same,glycan array binding signal (z-score),[19],-0.35
same,glycan array binding signal (z-score),[20],-0.356
same,glycan array binding signal (z-score),[21],-0.362
same,glycan array binding signal (z-score),[22],-0.36
same,glycan array binding signal (z-score),[23],-0.342
same,glycan array binding signal (z-score),[24],-0.318
same,glycan array binding signal (z-score),[25],-0.347
same,glycan array binding signal (z-score),[26],0.382
same,glycan array binding signal (z-score),[27],-0.337
same,glycan array binding signal (z-score),[28],-0.352
same,glycan array binding signal (z-score),[29],-0.33
same,glycan array binding signal (z-score),[30],-0.358
same,glycan array binding signal (z-score),[31],-0.34
same,glycan array binding signal (z-score),[32],-0.357
same,glycan array binding signal (z-score),[33],-0.343
same,glycan array binding signal (z-score),[34],-0.357
same,glycan array binding signal (z-score),[35],-0.336
same,glycan array binding signal (z-score),[36],-0.353
same,glycan array binding signal (z-score),[37],-0.363
same,glycan array binding signal (z-score),[38],-0.352
